The whole screen tested about 220,000 compounds, of which about 16,000 (7.3%) were called active. The inconclusive results got no clear call from the source; some entries with a clear call stand among them for comparison. The call rests on the fitted dose curve; in most records, active means well fitted inhibition curve with a large enough effect (not every such curve was filed as active); inconclusive means small, poorly fitted or top-dose-only effect, or another doubt; inactive means no such curve, though single readings can be large or run the other way. Potencies beside an inconclusive call are fits to weak or partial responses and may not hold up.
What follows are compounds tested against Aldehyde dehydrogenase 1A1 (Homo sapiens) (UniProt P00352) (assay: qHTS Assay for Inhibitors of Aldehyde Dehydrogenase 1 (ALDH1A1)). Conditions: Purified ALDH1A1, NADH fluorescence, propionaldehyde substrate; series mostly up to 75.3 µM; activity, negative = inhibition: at the top concentration.
Potency means the concentration at half of the fitted maximal effect; tags describe the fitted curve by direction and shape.
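Wherever activity, negative = inhibition is given: plate controls were no enzyme wells and a reference inhibitor.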

UniProt P00352, sequence (P00352 whole entry, looked up): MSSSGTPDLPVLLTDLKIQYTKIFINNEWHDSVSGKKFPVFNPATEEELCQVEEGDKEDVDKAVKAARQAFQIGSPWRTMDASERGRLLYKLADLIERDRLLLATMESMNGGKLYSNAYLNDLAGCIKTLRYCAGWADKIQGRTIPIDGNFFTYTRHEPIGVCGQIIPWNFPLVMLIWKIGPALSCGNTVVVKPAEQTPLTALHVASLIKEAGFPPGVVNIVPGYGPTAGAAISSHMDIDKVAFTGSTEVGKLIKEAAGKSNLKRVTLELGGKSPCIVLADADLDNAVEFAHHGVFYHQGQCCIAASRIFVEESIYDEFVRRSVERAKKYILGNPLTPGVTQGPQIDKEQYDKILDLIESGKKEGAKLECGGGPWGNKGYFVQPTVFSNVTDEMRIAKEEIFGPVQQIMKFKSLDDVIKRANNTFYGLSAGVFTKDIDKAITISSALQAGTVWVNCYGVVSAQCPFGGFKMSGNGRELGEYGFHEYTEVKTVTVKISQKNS

Potency, inconclusive:
CN(C)c1ccnc2sc3c(NCC(O)CO)ncnc3c12 (stereo unspecified) 22.4 µM [inhibitor, partial curve]
Cc1ccc(NCc2nnc(SCC(=O)Nc3cc(C)on3)n2C)cc1 37.7 µM [inhibitor, single point]
Cc1ccc(-c2nc(C#N)c(NCC3CCCO3)o2)cc1 (stereo unspecified) 28.2 µM [inhibitor, partial curve]
CCn1c(-c2ccccc2O)n[nH]c1=S 39.8 µM [inhibitor, single point]
Cc1cc(C)cc(OCC(=O)N2N=C(c3cccnc3)CC2(O)C(F)(F)F)c1 (stereo unspecified) 39.8 µM [inhibitor, single point]
COc1cc(OC)cc(C(=O)N2CCN(C(=O)COc3ccc4ccccc4c3)CC2)c1 39.8 µM [inhibitor, single point]
CCOC(=O)NN1C(=O)c2ccccc2NC1c1cccc(O)c1 (stereo unspecified) 39.8 µM [inhibitor, single point]
O=C(Nc1nccs1)C1CCCN(S(=O)(=O)c2cccc3cccnc23)C1 (stereo unspecified) 1 µM [inhibitor, single point]
COC(=O)c1c(NS(=O)(=O)c2ccc3ccccc3c2)sc2c1CCCC2 25.1 µM [inhibitor, single point]
CSc1nc2ccc(NC(=O)C3CCCO3)cc2s1 (stereo unspecified) 39.8 µM [inhibitor, single point]
Cc1nc2sc(C(c3ccco3)N3CCC(C)CC3)c(O)n2n1 (stereo unspecified) 39.8 µM [inhibitor, single point]
CCOc1ccc2[nH]c(=O)c(CN(CCCO)C(C)=O)cc2c1 35.5 µM [inhibitor, partial curve]
CCOC(=O)c1[nH]c2ccc(OC)cc2c1NC(=O)CN1CCc2ccccc2C1 25.1 µM [inhibitor, partial curve]
COc1ccc(C(=O)/C=C/Nc2c(C)n(C)n(-c3ccccc3)c2=O)cc1OC 25.1 µM [inhibitor, single point]
O=C(CN1CCC(N2CCCCC2)CC1)N1CCOCC1 22.4 µM [inhibitor, partial curve]
Cc1ccc2nc(COc3ccc(N(C)S(=O)(=O)c4ccccc4)cc3)cc(=O)n2c1 23.8 µM [inhibitor, partial curve]
CN(C)CCCN(C(=O)COc1ccc(Cl)cc1)c1nc2ccc(F)cc2s1 17.8 µM [inhibitor, single point]
CCOC(=O)C1C(=O)C=C(c2ccc(C)cc2)CC1c1ccco1 (stereo unspecified) 20 µM [inhibitor, partial curve]
COc1ccc(-c2cc3nc(C)cc(N)n3n2)cc1 28.2 µM [inhibitor, single point]
NC(=S)N=Nc1c(O)[nH]c2c(Br)cc(Br)cc12 11.2 µM [inhibitor, partial curve]
CCOc1cc(CNc2ccccc2)cc(Br)c1OCC(=O)NC(C)(C)C 39.8 µM [inhibitor, single point]
CCc1nnc(SCc2ccc(C(=O)OC)o2)n1N 35.5 µM [inhibitor, single point]
CC(C)N(Cc1nc(-c2ccc(Cl)cc2)no1)C(=O)CCC1CCCC1 4.47 µM [inhibitor, full curve]
C=CCOc1c(OC)cc(/C=N/Nc2cccc(C(=O)O)c2)c(Br)c1Br 39.8 µM [inhibitor, single point]
COCCn1cc(C(=O)NCc2cccs2)c2c3ccccc3n(C)c2c1=O 31.6 µM [inhibitor, single point]
O=c1c(-c2ccc(F)cc2)nc2cnc(N3CCNCC3)nc2n1Cc1cccs1 31.6 µM [inhibitor, single point]
O=C(c1cc(-c2ccco2)nc2ccccc12)N1CCN(c2ccc(F)cc2)CC1 25.1 µM [inhibitor, partial curve]
c1ccc2c(c1)CCN(c1nc(CN3CCOCC3)nc3sc4c(c13)CCCC4)C2 39.8 µM [inhibitor, single point]
O=C1C=C(N2CCOCC2)C2(CCCCC2)O1 39.8 µM [inhibitor, single point]
N#CCCn1c(=O)c(-c2cc(F)cc(F)c2)nc2cnc(N3CCOCC3)nc21 39.8 µM [inhibitor, single point]
CSCC[C@H](NC(=O)COc1ccc(Cl)cc1)c1nc2ccccc2[nH]1 5.62 µM [inhibitor, partial curve]
O=C(CC1C(=O)NCCN1Cc1ccoc1)NCCCn1ncc2ccccc21 (stereo unspecified) 39.8 µM [inhibitor, single point]
N/C(CSc1ccc(Cl)cc1)=N\S(=O)(=O)c1ccc(Cl)cc1 15.8 µM [inhibitor, single point]
CCCCCCC(=O)Nc1nc(C)c(-c2csc(Nc3cccc(OC)c3)n2)s1 39.8 µM [inhibitor, single point]
COc1cc(C(=O)N=c2sc3ccccc3n2C)cc(OC)c1OC 31.6 µM [inhibitor, partial curve]
COc1ccc2nc(SC(C(=O)c3ccccc3)c3ccccc3)nc(C)c2c1 (stereo unspecified) 14.1 µM [inhibitor, partial curve]
COc1ccc(C)cc1NC(=O)CSc1nc(SC)ns1 44.7 µM [inhibitor, single point]
Cc1nc(SCC(=O)c2cccc([N+](=O)[O-])c2)n[nH]1 28.2 µM [inhibitor, single point]
CC(C)NC(=S)Nc1ccc2cn[nH]c2c1 39.8 µM [inhibitor, single point]

Potency, active:
Cc1cc2cc(C(c3nnnn3CC3CCCO3)N3CCCc4ccccc43)c(=O)[nH]c2cc1C (stereo unspecified) 2.51 µM
O=C(/C(=C/O)N=Nc1ccccc1)c1cccs1 10 µM
COc1ccc2cc(C(c3nnnn3Cc3ccccc3)N3CCCCCC3)c(=O)[nH]c2c1 (stereo unspecified) 14.1 µM
Cn1c(CO)cnc1SCc1ccc([N+](=O)[O-])cc1 28.2 µM
S=C(NCCc1ccccc1)Nc1cccc2cnccc12 20 µM
COc1cccc(/C=N/Nc2ccc(S(=O)(=O)O)cc2)c1O 10 µM
COc1cc([N+](=O)[O-])ccc1NC(=O)Cn1ccsc1=N 8.91 µM
CCN(CC)c1ccc(/C=C2/C(=O)c3ccc(C(=O)O)cc3C2=O)cc1 8.91 µM
Cc1ccccc1C(=O)NC(=S)Nc1ccccc1C(F)(F)F 12.6 µM
O=C1c2ccccc2C(O)(O)[C@@]1(O)[C@]1(O)C(=O)c2ccccc2C1(O)O 0.251 µM
COc1ccc(C2CC(=O)c3c(C)nc(N4CCN(Cc5ccccc5)CC4)nc3C2)cc1OC (stereo unspecified) 25.1 µM
Cn1c(=O)c2c(nc(N3CCCCCC3)n2CC(=O)c2ccccc2)n(C)c1=O 4.47 µM
CCNc1ccc(C(=O)OCC(=O)NCCN2C(=O)CSC2=O)cc1[N+](=O)[O-] 3.55 µM

activity, negative = inhibition, inactive:
COC(=O)NC(NS(=O)(=O)c1ccccc1)(C(=O)OC)C(F)(F)F (stereo unspecified) -3.19%
CCOc1ccc(-c2nnc(-c3ccc(OC)cc3)o2)cc1 -10.1%
O=C(COC(=O)c1ccc(S(=O)(=O)N2CCCC2)cc1)NCc1ccc(F)cc1 4.95%
Cc1cccc(C(=O)NCCN2CCOCC2)c1[N+](=O)[O-] 0.837%
COc1ccccc1N1CCN(S(=O)(=O)c2cnc[nH]2)CC1 9.06%
C[C@@H]1CC[C@@H]2C(=O)N3[C@@H](CC[C@@H](C)[C@@H]3c3ccc(-c4ccco4)cc3)C(=O)N2[C@H]1c1ccc(-c2ccco2)cc1 -12.9% [at 13.5 µM]
COc1ccc(-c2c(C)nn3c(N)c(C#N)cnc23)cc1OC -10.9%
CCOC(=O)c1ccc(CNCc2ccccc2)cc1 -2.24%
Cc1cc(C)n2nc(SCC(=O)N(C)c3ccccc3)nc2n1 -5.37%
Cc1ccc(C)c(N2CCN(C(c3ccc(N(C)C)cc3)c3nnnn3C(C)(C)C)CC2)c1 (stereo unspecified) -13%
CCOC(=O)C1CCN(C(=O)c2cc3ccccc3oc2=O)CC1 -6.62%
CN(Cc1cccc2ccccc12)Cc1cccc2ccccc12 9.91% [at 13.5 µM]
Cc1ccc(Nc2cc(C)nn2-c2nc(C)cc(C)n2)cc1 -4.12%
COC(=O)NC(c1ccccc1)C(C#N)C(=O)OC (stereo unspecified) -0.805% [at 13.5 µM]
COc1c(Cl)cc(-c2noc(C)c2C(=O)NCCc2ccc(C)cc2)cc1Cl -11%
COc1ccc(-c2nnn(CC(=O)NCc3ccccc3)n2)cc1OC 4.03%
COCCNC(=O)/C(C#N)=C/c1ccc(SC)cc1 -6.78%
COCC(C)NC(=O)c1ccc(Cl)c(Cl)c1 (stereo unspecified) 3.63%
Cc1nc(SCC(=O)Nc2ccc(F)cc2)c2oc3ccccc3c2n1 4.91%
COc1cc([N+](=O)[O-])c2ncsc2c1 -6.15%
O=C(N/N=C1\CCc2ccccc21)c1ccccc1O 5.42%
CCCCC(CC)COC(=O)CCCCC(=O)OCC(CC)CCCC (stereo unspecified) -4.89%
COc1ccc(-c2nnc3sc(-c4ccccn4)nn23)cc1 -2.67%
Cc1cc(C)n(C(=O)CCC2COc3ccccc3O2)n1 (stereo unspecified) -1.51%

Source: PubChem BioAssay AID1030 (National Center for Advancing Translational Sciences (NCATS), 2008)
